Laboratory results reported in PubChem BioAssay (Tox21).
Inconclusive results, whose numbers are uncertain, are shown with a selection of clear calls. Potencies of inconclusive entries are left out as doubtful fits. Activity calls are given as the source filed them. Unless noted, the call rests on the fitted dose curve; in most records, active means well fitted activation curve with a large enough effect in the repeat runs; inconclusive means weak or mixed curves, or effect the other way; inactive means no such curve, though single readings can be large or run the other way.

assay: qHTS assay to identify small molecule antagonists of the estrogen related receptor signaling pathway with the pleiotropic PPARgamma coactivator (PGC) from Tox21 10K library (AID 1224841; call rule not given here; further: actives are mostly falling curves and most rising ones were filed inactive; nearly all actives have a fitted effect of over 50% in size); conditions: PGC/ERR reporter cell line, ONE-Glo luciferase, 18 h; series mostly up to 92.4 µM
Procedure, shortened: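 One-Glo luminescence, measured after half an hour at room temperature, quantified reporter output of PGC/ERR cells. These had been plated at 2,000 per well, incubated 6 h, dosed with compounds in DMSO, then kept 18 h at 37 C.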
Potency means the concentration at half of the fitted maximal effect; tags describe the fitted curve by direction and shape.

Compound | Potency
Cc1[nH]cnc1CN1CCc2c(c3ccccc3n2C)C1=O | inconclusive [falling, partial curve]
Cc1nc2ccccn2c(=O)c1CCN1CCC(C(=O)c2ccc(F)cc2)CC1 | inconclusive [falling, partial curve, poor fit]
CCCC(C)C(=O)OCC (stereo unspecified) | inconclusive [falling, partial curve, poor fit]
CCCC/C=C\CCCCCCCCCC=O | inactive
Cc1nc(C)nc(N2C[C@@H](C)N(c3ccnc([C@@H](C)O)n3)[C@@H](C)C2)n1 | inconclusive [falling, partial curve]

assay: qHTS assay to identify small molecule agonists of the estrogen related receptor signaling pathway with the pleiotropic PPARgamma coactivator (PGC) from Tox21 10K library (AID 1224842); conditions: PGC/ERR reporter cell line, luciferase ONE-Glo, 18 h; series mostly up to 42.5 µM; further: nearly all actives have a fitted effect of over 15% in size
Procedure, shortened: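 PGC/ERR reporter cell line, 2,000 cells per well, incubated 6 h at 37 C before 23 nL compound in DMSO was added. After 18 h at 37 C, One-Glo luminescence read following 30 min at room temperature.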

Compound | Potency
ONc1ccccc1 | inconclusive [activator, partial curve]
C=CC(=O)OCCOC(=O)CCC(=O)O | inconclusive [activator, single point]
OCCC(F)(F)C(F)(F)C(F)(F)C(F)(F)C(F)(F)C(F)(F)C(F)(F)C(F)(F)F | inconclusive [activator, single point]
Cc1ncc([N+](=O)[O-])n1CC(O)CCl (stereo unspecified) | inactive
OC1(c2ccccc2)CCNCC1 | inactive
C=CC(=O)OCCC#N | inconclusive [activator, partial curve]
